# Laboratory results taken from PubChem BioAssay AID686979 (National Center for Advancing Translational Sciences (NCATS), 2013).
# Values joined by “and” are separate entries in the source; they are usually repeats but may differ in a detail not shown here. Equal entries are not always repeated. The whole screen tested about 420,000 compounds, of which about 50,000 (12%) were called active. Inconclusive results, whose numbers are uncertain, are shown with a selection of clear calls. Calls follow the shape of the dose curve; as a rule, active = well fitted inhibition curve with a large enough effect; inconclusive = small, poorly fitted or top-dose-only effect; inactive = flat fitted curve, though single readings scatter. No potency is given beside an inconclusive call; the fits are too rough.
# Assay: qHTS for Inhibitors of human tyrosyl-DNA phosphodiesterase 1 (TDP1): qHTS in cells in presence of CPT; also: nearly all actives have a fitted effect of over 55% in size
# Details: chicken DT40 Tdp1-/-;hTDP1 cells + 20 nM CPT, ATP luminescence, 48 h; series mostly up to 46.2 µM
# Summary of the method: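 Cell growth measured by CellTiter-Glo luminescence after a minimum 48 h, 37 C compound exposure with 20 nM CPT in Tdp1-knockout DT40 cells stably expressing hTDP1, seeded 400/well; qHTS titration format.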
# Potency is read from the fitted curve at half-maximal effect; tags tell the direction and shape of the fitted curve.
row,Structure (SMILES),Potency
1,COc1cccc(-c2csc(N3CCN(CC(=O)NNC(=O)c4ccc(Cl)cc4)CC3)n2)c1,"inconclusive [inhibitor, single point]"
2,CC1=CC(C)(C)N=C(Nc2ccc(C)cc2)S1,"inconclusive [inhibitor, single point]"
3,COCCn1c(=O)c(-c2cccc(C#N)c2)nc2cnc(Oc3ccc(OC)cc3)nc21,"inconclusive [inhibitor, single point]"
4,CC(C)CN(C(=O)COC(=O)c1cc2ccccc2cc1O)c1c(N)n(Cc2ccccc2)c(=O)[nH]c1=O,"inconclusive [inhibitor, single point]"
5,O=C1N[C@@H](Cc2cn(S(=O)(=O)c3ccccc3)c3ccccc23)C(=O)N[C@H]1Cc1ccccc1,inactive
6,Cc1cc(-c2ccc(C)c(S(=O)(=O)NCC3CCN(Cc4ccccc4F)CC3)c2)on1,active: 18.4 µM
7,COC(=O)[C@]12CCCCC=C1N(Cc1ccccc1)C(=O)[C@H](CC(=O)NCc1cccc(C(F)(F)F)c1)C2,"inconclusive [inhibitor, single point]"
8,Cn1cc(Br)c(C(=O)N/N=C/c2cc3c(cc2Cl)OCO3)n1,inactive
9,Nc1ncnc2c1ncn2[C@H]1CC[C@@H](CO)O1,active: 1.88 µM and active: 3.66 µM and active: 1.64 µM
10,C=CCOC(=O)c1sc(NC(=O)c2ccco2)nc1C,"inconclusive [inhibitor, partial curve]"
11,CCOc1ccc(CN2C(=O)c3ccccc3C2=O)cc1C(=O)Nc1nnc(SCC)s1,"inconclusive [inhibitor, single point]"
12,COc1ccc(-c2cc(-c3ccccc3)c(C#N)c(S(C)=O)n2)cc1 (stereo not drawn),active: 3.26 µM
13,Cc1ccccc1N1CCN(C2CCCN(C(=O)c3ccnn3C)C2)CC1 (stereo not drawn),"inconclusive [inhibitor, full curve, poor fit]"
14,COc1ccc(-c2oc3ncnc(N)c3c2-c2ccccc2)cc1,inactive
15,CCc1cccc(Nc2cnn(C34C[C@@H]5C[C@@H](CC(CC(=O)O)(C5)C3)C4)c(=O)c2Cl)c1,inactive
16,COc1cccc(OC)c1-c1cnc(NC(C)=O)cn1,inactive
17,CCCN(C(=O)c1cc(S(=O)(=O)N(C)c2ccccc2OC)ccc1C)C1CCS(=O)(=O)C1 (stereo not drawn),"inconclusive [inhibitor, partial curve, poor fit]"
18,Cc1ccc(C)c(N2CCN(S(=O)(=O)c3c(C)noc3/C=C/N(C)C)CC2)c1,"inconclusive [inhibitor, single point]"
